According to the supplement of paper PMC3334620:
Whole data set: some 33,000 sequences, median “E-score (-0.5 to 0.5)” near -0.011, cut for the highest 2% near 0.28. The list shows a part of the results.

biological target: T1, Gcr1 (UniProt P07261); experiment: PBM E-score (8-mer binding enrichment) (E-score (-0.5 to 0.5)); higher = stronger / more preferred TF binding; most listed sequences are background and not binding sites; details: protein concentration: 100 nM; construct: GST-full length
T1 sequence: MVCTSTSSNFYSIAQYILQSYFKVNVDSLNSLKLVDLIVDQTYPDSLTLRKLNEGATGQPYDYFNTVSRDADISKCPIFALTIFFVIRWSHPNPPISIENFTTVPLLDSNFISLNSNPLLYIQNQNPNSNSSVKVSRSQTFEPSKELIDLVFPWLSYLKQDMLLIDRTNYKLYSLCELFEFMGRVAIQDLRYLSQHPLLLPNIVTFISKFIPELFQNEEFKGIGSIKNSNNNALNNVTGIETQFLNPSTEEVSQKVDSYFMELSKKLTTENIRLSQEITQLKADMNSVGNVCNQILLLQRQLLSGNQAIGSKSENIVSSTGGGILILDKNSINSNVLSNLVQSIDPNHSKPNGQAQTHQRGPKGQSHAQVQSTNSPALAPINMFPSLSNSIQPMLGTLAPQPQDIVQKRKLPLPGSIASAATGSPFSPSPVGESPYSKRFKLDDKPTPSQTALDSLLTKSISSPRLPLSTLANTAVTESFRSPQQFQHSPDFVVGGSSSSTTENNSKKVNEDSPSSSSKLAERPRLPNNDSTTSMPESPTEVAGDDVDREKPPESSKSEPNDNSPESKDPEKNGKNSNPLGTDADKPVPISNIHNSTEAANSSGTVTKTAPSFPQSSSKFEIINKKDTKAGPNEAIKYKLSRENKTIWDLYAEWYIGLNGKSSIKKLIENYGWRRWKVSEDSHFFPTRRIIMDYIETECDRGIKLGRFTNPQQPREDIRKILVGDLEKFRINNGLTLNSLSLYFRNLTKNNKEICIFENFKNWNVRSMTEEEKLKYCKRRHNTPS
Method: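 Universal 'all 10-mer' protein binding microarrays (Agilent AMADID 015681) probed with GST-tagged S. cerevisiae TFs (full-length or DBD) made by in vitro transcription/translation (PURExpress), about 100-200 nM. Bound TF was detected with fluorescent anti-GST. Each ungapped 8-mer (which stands for itself and its reverse complement) is scored by the PBM enrichment score (E-score), a modified Wilcoxon-Mann-Whitney statistic from -0.5 to +0.5, computed with the Universal PBM Analysis Suite. Scale: above 0.35 generally sequence-specific binding.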

| Sequence | PBM E-score |
| --- | --- |
| ACCGGCCG | 0.038 |
| AGATTTCG | 0.113 |
| CATTTCTA | -0.0239 |
| AGAGTTGA | -0.18 |
| GAAGTCCC | -0.0966 |
| GACGGGAA | -0.00518 |
| CTCTGGCC | -0.0449 |
| ATGATACG | 0.107 |
| GTGACCAA | 0.116 |
| AATTCTAG | 0.195 |
| CTCGGCAA | 0.0422 |
| ACCGAAGA | -0.0355 |
| CAAGCAAC | -0.135 |
| GTAACGTA | -0.152 |
| CTTTATCC | 0.149 |
| ATTGGCTA | -0.158 |
| CCTATAAG | 0.212 |
| AGGTGGAA | 0.0333 |
| ACAGATCC | 0.0629 |
| ACAAGTCG | -0.00176 |
| AAACACGT | -0.0869 |
| AGTTTAGA | 0.162 |
| AGGCACTA | -0.113 |
| AGGATACC | 0.242 |
| AGCTAGCG | -0.149 |

| Sequence | PBM E-score |
| --- | --- |
| ATACGTCC | -0.0269 |
| AATCAATT | 0.0938 |
| CCCCCTGC | -0.262 |
| CTGAGCAC | 0.146 |
| AGTCCTGC | 0.0253 |
| CTATTCGC | 0.0553 |
| GTAATCAA | -0.112 |
| GCAGACGC | 0.15 |
| AAGGGGTC | -0.19 |
| GAGGTACA | -0.0675 |
| AACTGAAT | 0.145 |
| GCCTCCCC | 0.165 |
| CTCGTCGA | -0.314 |
| AACTATCT | -0.0328 |
| ATATCCTC | -0.118 |
| AGGGTGAC | 0.019 |
| CTATATCC | 0.0474 |
| GACCTTAA | -0.0557 |
| CAACTTGG | 0.0901 |
| AGGGTGAG | -0.186 |
| AGAGTACT | -0.304 |
| CGACATTC | -0.0306 |
| ACAAGCCA | -0.275 |
| CAGTATCG | -0.0211 |
| ATAAACTC | -0.0769 |

| Sequence | PBM E-score |
| --- | --- |
| ACCTATTA | 0.152 |
| CTGCTGGA | 0.0938 |
| CCATGACA | -0.207 |
| CTCGTGCC | -0.0839 |
| AGGCAATG | -0.272 |
| CCCTGGCG | 0.0359 |
| CGGCAAGC | -0.0115 |
| CCGCACAG | -0.103 |
| ATTCATAA | -0.0219 |
| CCCTTGCC | -0.171 |
| CGTCTTTA | 0.213 |
| CATCGCCG | -0.0764 |
| ACCCCTTC | 0.0192 |
| CCACCGGC | 0.13 |
| GATTTTGC | -0.0195 |
| GCGACACC | -0.0258 |
| ATCGGGTC | -0.0793 |
| CAGCACTC | -0.114 |
| CCGGGAAC | 0.172 |
| ATTCTTAA | 0.205 |
| GCGGCAAC | 0.0813 |
| ACATGCGA | -0.18 |
| GCTATCCA | -0.104 |
| GAGGACAC | -0.225 |
| ACCTCCAC | 0.0842 |

| Sequence | PBM E-score |
| --- | --- |
| ACTGATCT | -0.116 |
| GCGAGAGA | -0.106 |
| CGTTAGAG | -0.0235 |
| ATGTGGTA | 0.0954 |
| CGGACTAG | -0.217 |
| GCCATACC | 0.0599 |
| CCCTTTTA | 0.00798 |
| GGCGAGGA | -0.101 |
| AGGATAGG | 0.0177 |
| GAGTTATA | -0.115 |
| TCGTCAGA | -0.245 |
| GGTAATCA | -0.195 |
| CTTGCGTC | -0.0686 |
| TAAAAGGA | 0.153 |
| CCGACTCC | -0.0254 |
| AACATTTC | -0.0184 |
| GAGCTTGC | -0.244 |
| ACAATTGG | -0.131 |
| GACGTGGA | -0.141 |
| AAGTAGCC | 0.0411 |
| GCGAATTA | -0.00089 |
| AGAGAGAC | -0.101 |
| ACAGCGCA | -0.231 |
| ATACGGAT | 0.116 |
| ATCCGGCG | 0.143 |

| Sequence | PBM E-score |
| --- | --- |
| CCAAGCGC | 0.0772 |
| AAAGAAGC | 0.262 |
| CCTCCTTC | -0.13 |
| AGTTTACA | 0.0426 |
| AGCTACAG | 0.0682 |
| AAATCCAT | 0.129 |
| ATGTGAAT | -0.145 |
| ATTAGCAC | 0.0277 |
| GGACTGCC | -0.0677 |
| GAATCTGC | 0.139 |
| TCGCGGAA | -0.11 |
| AGGTACCG | 0.0491 |
| CGAATTGC | -0.175 |
| GGACTATA | -0.0925 |
| CCGACCGA | -0.201 |
| CTACCCCC | -0.16 |
| GAGCCGCA | 0.0487 |
| GTCCCATA | 0.0928 |
| CAGGAGGG | -0.0272 |
| GGCAAATA | -0.103 |
| CATCGGGA | 0.0473 |
| ACACCGAC | -0.157 |
| ATGATTTA | 0.0654 |
| TAGTCTGA | -0.0964 |
| AGCGGAGC | -0.151 |

| Sequence | PBM E-score |
| --- | --- |
| GGGCGTTA | -0.0666 |
| GTCCGACA | 0.0648 |
| CGGACACC | 0.0465 |
| CGGATCAA | -0.0941 |
| CGTCCACA | 0.0868 |
| CTCTCATC | -0.0935 |
| CCCGGATA | 0.00805 |
| CCGCCGCA | 0.0722 |
| TAAGACAA | -0.0918 |
| GGCTCTAC | 0.0648 |
| ACGGGTTC | 0.00654 |
| ACCCTAAT | 0.0853 |
| AAGATGTA | 0.0085 |
| CATAATTA | 0.103 |
| CTCCGAGC | -0.0144 |
| CCATTCGA | 0.104 |
| CGTAGAGC | 0.0698 |
| GACGGTGA | -0.246 |
| ATCGACGG | -0.18 |
| TCAACGCA | -0.226 |
| GACCCTCC | -0.0438 |
| AGAACTAA | -0.187 |
| GGAACACC | -0.0671 |
| GCAACCAA | 0.302 |
| CTTCCCAC | 0.206 |

| Sequence | PBM E-score |
| --- | --- |
| AGTTTTTC | 0.0995 |
| CGTGGACC | -0.0622 |
| AACGCAGA | 0.0509 |
| ATCGGCTG | -0.123 |
| CACACACG | 0.217 |
| AGAGATAA | 0.0874 |
| GGGCTGAA | -0.0743 |
| ATCGATTC | 0.125 |
| CGTTGCCA | 0.0696 |
| ATCAGGGG | -0.143 |
| AGAAGGGC | -0.091 |
| GGCACATA | 0.208 |
| GCGCAATA | 0.114 |
| AGGTCGAG | -0.112 |
| CAGCGAAC | -0.195 |
| GGAGGCAA | -0.149 |
| GTGTCCCA | -0.101 |
| CCGCTAGG | -0.135 |
| CACCACAA | 0.217 |
| GTATGCTA | -0.0409 |
| ACTGGGCA | 0.0436 |
| ACGTCGCA | -0.0147 |
